Reference: patent US11208436B2, “Populations of polypeptides having a triple-helical structure” (Navigo Proteins GmbH, priority 2018, dated 2021)

Molecular target: T1, IgG Fc domains (Homo sapiens, UniProt P01857)
T1 construct: The IgG1-Fc-domain was immobilized on a CM-5 sensor chip (GE Healthcare)
Test: Binding to IgG Fc domains
Details: qualitative statement; values not given
Description: The IgG1-Fc-domain was immobilized on a CM-5 sensor chip (GE Healthcare); the chip was equilibrated with SPR running buffer. Surface-exposed carboxylic groups were activated by passing a mixture of EDC and NHS to yield reactive ester groups. 700-1500 RU target (on-ligand) were immobilized on a flow cell, IgG-Fc (off-ligand) was immobilized on another flow cell. Injection of ethanolamine after ligand immobilization was used to block unreacted NHS groups. Upon ligand binding, protein analyte was accumulated on the surface increasing the refractive index. This change in the refractive index was measured in real time and plotted as response or resonance units (RU) versus time. The analytes were applied to the chip in serial dilutions with a flow rate of 30 μl/min. The association was performed for 120 seconds and the dissociation for 360 seconds. After each run, the chip surface was regenerated with 30 μl regeneration buffer (10 mM HCL) and equilibrated with running buffer. A dilution series served as positive control, whereas a dilution series of unmodified scaffold represents the negative control. The control samples were applied to the matrix with a flow rate of 30 μl/min, while they associate for 60 seconds and dissociate for 120 seconds. […] Evaluated dissociation constants (KD) were standardized against off-target and indicated.

Substance: SEQ ID NO: 2: alkaline stable, non-Fc binding parental protein with triple helix structure, 58 amino acids; scaffold of library PA11 (IAAKFDEAQSAADSEILHLPNLTEEQRNAFRQSLSDDPSVSLEVLGEAQKLND; PA11 artifical sequence for library)
- binding to IgG Fc domains: no binding
